# Data published in ChEMBL document CHEMBL4689842, “EUbOPEN Chemogenomics Library wave 1” (2021).
# A number of entries come with more than one value. This list holds those alone. The source may hold further records. Results that share an entry repeat one measurement in other runs, samples, wells, individuals or studies.
# Assays:
# Format in all cases: toxicity, cell-based
# HEK-293T = experiment: Multiplex assay against HEK293T; conditions: human;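 on Population Tubulin-Different-Phenotype (%): share of the cells with healthy nuclei that show this phenotype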
# Procedure, shortened: (§1)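 Cells were classed with CellPathfinder machine-learning gating, first as Hoechst high-intensity objects or normal cells, then (normal cells) as healthy, pyknosed or fragmented nuclei, and finally (pyknosed cells) as mitotic or apoptotic. Staining of live cells at seeding used Hoechst33342, BioTracker Green Microtubule Cytoskeleton Dye, MitoTracker Red and Annexin V Alexa Fluor 680, with imaging on a CQ1 microscope at 37°C and 5% CO2 after compound addition. Tubulin, mitochondrial-mass and membrane-permeability phenotypes are per cents of healthy-nucleus cells.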
# U2OS = experiment: Multiplex assay against U2OS; conditions: human; procedure, shortened: as §1
# Fibroblast = experiment: Multiplex assay against human fibroblast; procedure, shortened: as §1
# [1] = 12 h, 10 µM, compound concentration 10 uM, replicate 1
# [2] = 12 h, 10 µM, compound concentration 10 uM, replicate 2
# [3] = 24 h, 10 µM, compound concentration 10 uM, replicate 1
# [4] = 24 h, 10 µM, compound concentration 10 uM, replicate 2
# [5] = 12 h, 1 µM, compound concentration 1 uM, replicate 1
# [6] = 12 h, 1 µM, compound concentration 1 uM, replicate 2
# [7] = 24 h, 1 µM, compound concentration 1 uM, replicate 1
# [8] = 24 h, 1 µM, compound concentration 1 uM, replicate 2
structure (smiles),measurement,setting,value
CCOC(=O)Nc1cc(-c2ccc(C)c(NS(C)(=O)=O)c2)nn2c(C)nnc12,Population Healthy Nuclei (%),HEK-293T; [1],23% and 77%
same,Population Mitochondria Different-Phenotype (%),HEK-293T; [1],62% and 5%
same,Population Pyknosed Nuclei (%),HEK-293T; [1],57% and 13%
same,Population Tubulin-Different-Phenotype (%),HEK-293T; [1],12% and 2%
same,Population Pyknosed Nuclei (%),HEK-293T; [2],3% and 41%
same,Total Cell Count,HEK-293T; [2],2390 and 206
same,Population Mitochondria Different-Phenotype (%),HEK-293T; [3],27% and 4%
same,Population Pyknosed Nuclei (%),HEK-293T; [3],48% and 5%
same,Total Cell Count,HEK-293T; [3],298 and 958
same,Population Apoptotic (%),HEK-293T; [4],1% and 4%
same,Population Fragmented Nuclei (%),HEK-293T; [4],6% and 45%
same,Population Pyknosed Nuclei (%),HEK-293T; [4],24% and 1%
same,Total Cell Count,HEK-293T; [4],268 and 3866
same,Population Mitochondria Different-Phenotype (%),U2OS; [1],7% and 22%
same,Population Tubulin-Different-Phenotype (%),U2OS; [1],96% and 27%
same,Population Apoptotic (%),U2OS; [2],40% and 0%
same,Population Apoptotic (%),U2OS; [3],11% and 66%
same,Population Tubulin-Different-Phenotype (%),U2OS; [3],95% and 25%
same,Population Membrane Permeable-Phenotype (%),Fibroblast; [1],34% and 10%
same,Population Tubulin-Different-Phenotype (%),Fibroblast; [1],31% and 5%
same,Population Fragmented Nuclei (%),Fibroblast; [2],51% and 8%
same,Population Hoechst High Intensity Objects (%),Fibroblast; [2],22% and 2%
same,Population Mitochondria Different-Phenotype (%),Fibroblast; [2],3% and 11%
same,Population Tubulin-Different-Phenotype (%),Fibroblast; [2],12% and 89%
same,Population Tubulin-Different-Phenotype (%),Fibroblast; [3],22% and 5%
same,Population Apoptotic (%),Fibroblast; [4],0% and 28%
same,Population Fragmented Nuclei (%),Fibroblast; [4],52% and 3%
same,Population Hoechst High Intensity Objects (%),Fibroblast; [4],28% and 2%
same,Population Pyknosed Nuclei (%),Fibroblast; [4],1% and 5%
same,Population Tubulin-Different-Phenotype (%),Fibroblast; [4],6% and 96%
CN1CCN(Cc2cc(NC(=O)c3ccc4c(c3)CN(c3ccccc3)CC4)cc(C(F)(F)F)c2)CC1,Population Mitochondria Different-Phenotype (%),HEK-293T; [5],39% and 11%
same,Population Tubulin-Different-Phenotype (%),HEK-293T; [5],82% and 17%
same,Population Hoechst High Intensity Objects (%),HEK-293T; [6],10% and 2%
same,Population Membrane Permeable-Phenotype (%),HEK-293T; [6],19% and 4%
same,Population Tubulin-Different-Phenotype (%),HEK-293T; [6],98% and 23%
same,Population Hoechst High Intensity Objects (%),HEK-293T; [7],29% and 9%
same,Population Membrane Permeable-Phenotype (%),HEK-293T; [7],21% and 6%
same,Population Tubulin-Different-Phenotype (%),HEK-293T; [7],89% and 26%
same,Population Hoechst High Intensity Objects (%),HEK-293T; [8],10% and 3%
same,Population Membrane Permeable-Phenotype (%),HEK-293T; [8],34% and 9%
same,Population Mitochondria Different-Phenotype (%),HEK-293T; [8],14% and 2%
same,Population Pyknosed Nuclei (%),HEK-293T; [8],7% and 2%
same,Population Tubulin-Different-Phenotype (%),HEK-293T; [8],96% and 19%
same,Population Fragmented Nuclei (%),U2OS; [5],20% and 5%
same,Population Mitochondria Different-Phenotype (%),U2OS; [5],62% and 14%
same,Population Pyknosed Nuclei (%),U2OS; [5],15% and 4%
same,Population Apoptotic (%),U2OS; [6],34% and 0%
same,Population Mitochondria Different-Phenotype (%),U2OS; [6],68% and 17%
same,Population Mitochondria Different-Phenotype (%),U2OS; [7],75% and 10%
same,Population Pyknosed Nuclei (%),U2OS; [7],38% and 3%
same,Population Tubulin-Different-Phenotype (%),U2OS; [7],94% and 26%
same,Population Apoptotic (%),U2OS; [8],55% and 12%
same,Population Mitochondria Different-Phenotype (%),U2OS; [8],85% and 16%
same,Population Pyknosed Nuclei (%),U2OS; [8],34% and 9%
same,Population Tubulin-Different-Phenotype (%),U2OS; [8],98% and 23%
same,Population Membrane Permeable-Phenotype (%),Fibroblast; [6],22% and 6%
same,Population Tubulin-Different-Phenotype (%),Fibroblast; [6],18% and 55%
same,Population Tubulin-Different-Phenotype (%),Fibroblast; [7],41% and 12%
same,Population Mitotic Cells (%),Fibroblast; [8],0% and 60%
